# Read-outs that look alike come from different tables or passages of the source.
# B1: hCdc14AQ395A (protein, UniProt Q9UNH5 1-594, looked up, variant Q395A)
# Dual specificity protein …: MAAESGELIGACEFMKDRLYFATLRNRPKSTVNTHYFSIDEELVYENFYADFGPLNLAMVYRYCCKLNKKLKSYSLSRKKIVHYTCFDQRKRANAAFLIGAYAVIYLKKTPEEAYRALLSGSNPPYLPFRDASFGNCTYNLTILDCLQGIRKGLQHGFFDFETFDVDEYEHYERVENGDFNWIVPGKFLAFSGPHPKSKIENGYPLHAPEAYFPYFKKHNVTAVVRLNKKIYEAKRFTDAGFEHYDLFFIDGSTPSDNIVRRFLNICENTEGAIAVHCKAGLGRTGTLIACYVMKHYRFTHAEIIAWIRICRPGSIIGPQQHFLEEKQASLWVQGDIFRSKLKNRPSSEGSINKILSGLDDMSIGGNLSKTQNMERFGEDNLEDDDVEMKNGITAGDKLRALKSQRQPRTSPSCAFRSDDTKGHPRAVSQPFRLSSSLQGSAVTLKTSKMALSPSATAKRINRTSLSSGATVRSFSINSRLASSLGNLNAATDDPENKKTSSSSKAGFTASPFTNLLNGSSQPTTRNYPELNNNQYNRSSNSNGGNLNSPPGPHSAKTEEHTTILRPSYTGLSSSSARFLSRSIPSLQSEYVHY
# B2: ScCdc14^S429E (protein, UniProt Q00684 1-551, looked up, variant S429E)
# Tyrosine-protein phosphatase …: MRRSVYLDNTIEFLRGRVYLGAYDYTPEDTDELVFFTVEDAIFYNSFHLDFGPMNIGHLYRFAVIFHEILNDPENANKAVVFYSSASTRQRANAACMLCCYMILVQAWTPHQVLQPLAQVDPPFMPFRDAGYSNADFEITIQDVVYGVWRAKEKGLIDLHSFNLESYEKYEHVEFGDFNVLTPDFIAFASPQEDHPKGYLATKSSHLNQPFKSVLNFFANNNVQLVVRLNSHLYNKKHFEDIGIQHLDLIFEDGTCPDLSIVKNFVGAAETIIKRGGKIAVHCKAGLGRTGCLIGAHLIYTYGFTANECIGFLRFIRPGMVVGPQQHWLYLHQNDFREWKYTTRISLKPSEAIGGLYPLISLEEYRLQKKKLKDDKRVAQNNIEGELRDLTMTPPSNGHGALSARNSSQPSTANNGSNSFKSSAVPQTEPGQPRKGQNGSNTIEDINNNRNPTSHANRKVVIESNNSDDESMQDTNGTSNHYPKVSRKKNDISSASSSRMEDNEPSATNINNAADDTILRQLLPKNRRVTSGRRTTSAAGGIRKISGSIKK
# B3: ScCdc14^1-449: truncation of S. cerevisiae Cdc14 that retains the SLiCE motif (protein)
# chain: MRRSVYLDNTIEFLRGRVYLGAYDYTPEDTDELVFFTVEDAIFYNSFHLDFGPMNIGHLYRFAVIFHEILNDPENANKAVVFYSSASTRQRANAACMLCCYMILVQAWTPHQVLQPLAQVDPPFMPFRDAGYSNADFEITIQDVVYGVWRAKEKGLIDLHSFNLESYEKYEHVEFGDFNVLTPDFIAFASPQEDHPKGYLATKSSHLNQPFKSVLNFFANNNVQLVVRLNSHLYNKKHFEDIGIQHLDLIFEDGTCPDLSIVKNFVGAAETIIKRGGKIAVHCKAGLGRTGCLIGAHLIYTYGFTANECIGFLRFIRPGMVVGPQQHWLYLHQNDFREWKYTTRISLKPSEAIGGLYPLISLEEYRLQKKKLKDDKRVAQNNIEGELRDLTMTPPSNGHGALSARNSSQPSTANNGSNSFKSSAVPQTSPGQPRKGQNGSNTIEDINNN
# modifications: left off: 6xHis, N-terminal, state not stated
# Assay: Steady-state kinetics of Cdc14 enzyme variants toward DiFMUP
# [1] = DiFMUP, steady state, compared to parent/WT enzyme
molecule,measurement,setting,value
B1,change in KM (in words),,approximately equivalent decreases in both kcat and KM
same,change in kcat (in words),,approximately equivalent decreases in both kcat and KM
B2,change in KM (in words),[1],significant decrease in both kcat and KM
same,change in kcat (in words),[1],significant decrease in both kcat and KM
B3,steady-state kinetics compared (in words),,nearly identical kinetics

# Source: paper PMC11407943, “Cdc14 phosphatases use an intramolecular pseudosubstrate motif to stimulate and regulate catalysis” (The Journal of Biological Chemistry, 2024)
